Reference: PubChem BioAssay AID1159614 (National Center for Advancing Translational Sciences (NCATS), 2016)
Hit rate of the full screen: of about 45,000 compounds, about 65 (0.1%) were called active. Calls follow the shape of the dose curve; as a rule, active = well fitted activation curve with a large enough effect; inconclusive = small, poorly fitted or top-dose-only effect; inactive = no such curve, though single readings can be large or run the other way. The list shows a part of the results.

Molecular target: Galactocerebrosidase (Homo sapiens) (UniProt P54803)
Chain of UniProt P54803 (P54803 whole entry, looked up): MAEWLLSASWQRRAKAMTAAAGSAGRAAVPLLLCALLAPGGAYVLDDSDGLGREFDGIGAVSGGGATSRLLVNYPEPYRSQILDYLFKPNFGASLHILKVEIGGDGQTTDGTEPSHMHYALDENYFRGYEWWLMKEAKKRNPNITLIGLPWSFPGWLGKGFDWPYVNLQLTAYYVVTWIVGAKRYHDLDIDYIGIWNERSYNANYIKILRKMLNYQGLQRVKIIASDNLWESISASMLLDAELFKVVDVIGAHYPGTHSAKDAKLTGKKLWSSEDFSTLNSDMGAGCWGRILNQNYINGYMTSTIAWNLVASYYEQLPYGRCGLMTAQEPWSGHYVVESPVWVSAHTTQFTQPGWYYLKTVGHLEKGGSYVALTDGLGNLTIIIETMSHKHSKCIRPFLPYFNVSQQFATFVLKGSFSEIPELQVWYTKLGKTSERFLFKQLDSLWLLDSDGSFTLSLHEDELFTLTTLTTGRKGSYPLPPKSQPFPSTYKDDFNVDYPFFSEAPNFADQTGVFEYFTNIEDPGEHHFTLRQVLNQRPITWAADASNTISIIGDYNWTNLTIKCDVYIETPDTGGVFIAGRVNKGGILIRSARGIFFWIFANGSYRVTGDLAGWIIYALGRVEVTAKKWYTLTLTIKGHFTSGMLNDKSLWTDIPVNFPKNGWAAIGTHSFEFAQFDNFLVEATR
Assay: A Novel Cell-Based Assay to Identify Small Molecules for B -Galactocerebrosidase; also: 0% is about no effect; nearly all actives have a fitted effect of over 65% in size
Settings: 145M-Twi-hGALC-G270D cells (Twitcher mouse brain line with human GALC G270D), HMU-beta-Gal fluorescence, 48 h; series mostly up to 57.5 µM; activation: at the top concentration
In short: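 Fluorogenic HMU-b-Gal hydrolysis (0.1 mM final, pH 5.2 citrate-phosphate with 1 mg/mL sodium taurocholate; carbonate stop buffer) measures mutant GALC activity after compound treatment of live 145M-Twi Twitcher brain cells stably carrying human GALC-G270D, with wild-type GALC line alongside; activation sought.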

Row | Structure (SMILES) | activation
1 | COc1cccc(N2C(=O)CSC23C(=O)N(Cc2ccccc2)c2ccccc23)c1 (stereo not drawn) | inactive: -19%
2 | Cc1ccc(C)c(CSc2cn(CC(=O)N3CCCCCC3)c3ccccc23)c1 | inactive: -17.7%
3 | CCOC(=O)c1cnc2ccc(C(=O)OC)cc2c1Nc1ccccc1CC | inactive: -29.2%
4 | Cc1ccccc1Cn1nnc2c(=O)[nH]c(C3CCN(C(=O)c4ccccc4)CC3)nc21 | inactive: -11.6%
5 | CCOc1ccc(C2c3[nH]c4ccccc4c3CCN2C(=O)Cc2cccc(OCC)c2OCC)cc1 (stereo not drawn) | inactive: -8.64%
6 | Cc1cc(C)cc(-n2ccnc2SCC(=O)Nc2nc3ccccc3s2)c1 | inactive: -31.3%
7 | COc1ccc(-c2nc3sc(CCNC(=O)c4cccc(C(F)(F)F)c4)c(C)n3n2)cc1 | inactive: -23.3%
8 | CCOC(=O)c1c(S(=O)(=O)NCC(=O)Nc2ccc(C)c(Cl)c2)c(C)n(C)c1C | inactive: -4.73%
9 | CCC(C(=O)NCc1ccccc1OC)n1nc(C)n2c(cc3sccc32)c1=O (stereo not drawn) | inactive: -7.26%
10 | CC(C)(C)n1cnc2cc(NCc3ccccc3Cl)ccc21 | inactive: -10.6%
11 | COc1ccc(NC(=O)C2CCCN2S(=O)(=O)c2cccc3cccnc23)cc1OC (stereo not drawn) | inactive: -9.95%
12 | CC(C)Oc1ccc(CNC(=O)c2ccc(NC(=O)N3CCSc4ncccc43)cc2)cc1 | inactive: 0.657%
13 | CSc1ncc(C(=O)NCc2ccccc2)c(-c2ccccc2)n1 | inactive: -3%
14 | Cc1ccc(C)c(Nc2nn3c(=O)c4ccc(C(=O)NCCc5ccccc5)cc4nc3s2)c1 | inactive: -4.69%
15 | CN(C)c1ccc(CNC(=O)C2CCN(S(=O)(=O)c3ccc4c(ccn4C)c3)CC2)cc1 | inactive: -7.8%
16 | COc1ccc(C(=O)Nc2nc3c(s2)CCc2cc(OC)ccc2-3)cc1 | inactive: 10.6%
17 | COCCCn1c(SCC(=O)NCc2ccccc2)nc2c(sc3ccccc32)c1=O | inactive: -1.12%
18 | CCN(C(=O)Cn1cc(S(=O)(=O)Cc2ccccc2Cl)c2ccccc21)c1ccccc1 | inactive: -11%
19 | CN(C)c1ccc2nc3ccc(=[N+](C)C)cc-3sc2c1 | inactive: -14.9%
20 | Cc1ccc(C)c(N2CCN(C(=O)Cn3c(-c4cccs4)cc4ccccc43)CC2)c1 | inactive: -12.2%
21 | Cc1n[nH]c(C)c1S(=O)(=O)N1CCCC(C(=O)Nc2ccc(Cl)cc2)C1 (stereo not drawn) | inactive: -26.5%
22 | Cc1ccc(N2CCN(C(=O)c3c4c(nc5ccccc35)C(=O)N(C3CCCCC3)C4)CC2)c(C)c1 | inactive: -9.08%
23 | C[C@@H](CN(C)C)CN1c2ccccc2Sc2ccccc21 | inactive: -14.5%
24 | CCOC(=O)c1ccc(NC(=O)C(CC)Sc2nc3ncccc3o2)cc1 (stereo not drawn) | inactive: -6.22%

Row | Structure (SMILES) | activation
25 | CCOc1cc(C2c3c(oc4ccc(F)cc4c3=O)C(=O)N2Cc2ccco2)ccc1O (stereo not drawn) | inactive: -15.3%
26 | Cc1ccc(-n2c(SCC(=O)Nc3ccc4c(c3)OCO4)nc3c([nH]c4ccccc43)c2=O)cc1 | inactive: -16.8%
27 | Cc1ccc(-c2cc(C(=O)NCc3cnn(C)c3)c3cc(Br)ccc3n2)cc1 | inactive: -7.92%
28 | COc1ccc(C2C(=O)c3ccccc3C2=O)cc1 | inactive: -9.68%
29 | CCCCNc1nc(Oc2ccc(OCC(N)=O)nn2)nc(N2CCOCC2)n1 | inactive: -8.61%
30 | Cc1ccc(-n2ncc3c(N4CCN(CCO)CC4)ncnc32)cc1Cl | inactive: -14.6%
31 | COc1ccc(CCNc2ncnc3c2c(-c2ccccc2)cn3-c2ccc(F)cc2)cc1OC | inactive: 0.853%
32 | CCC(=O)C1=C(c2cccc([N+](=O)[O-])c2)N(C(=O)CC)n2c(nnc2-c2ccccc2)S1 | inactive: -23.3%
33 | CCc1ccccc1N(C)C(=O)c1cnc(N2CCOCC2)c2ccccc12 | inactive: -10.7%
34 | Cc1cccc(C(=O)N2CCc3cc(CNC(=O)Cc4ccc(F)cc4)ccc32)c1 | inactive: -45%
35 | Cc1ccc(Cc2nc3ccccc3nc2SCC(=O)NCc2ccc(F)cc2)cc1 | inactive: -15.6%
36 | Cc1cc(Br)ccc1NC(=O)c1cn(C2CCCC2)c(=O)c2c1c1ccccc1n2C | inactive: -11.7%
37 | O=C(Nc1ccc(SC(F)F)cc1)c1cc(-c2cccs2)on1 | inactive: -12.3%
38 | CC1CCN(C(=O)CN2CCSc3ccccc32)CC1 | inactive: -7.8%
39 | CC(NC(=O)c1nn(C)c2c1CSc1ccccc1-2)c1ccccc1 (stereo not drawn) | inactive: -10.7%
40 | COC(=O)c1sc2cccc(F)c2c1S(=O)(=O)N1CCN(c2ccccc2OC)CC1 | inactive: -5.12%
41 | CCNc1nc2c(c(=O)[nH]c(=O)n2C)n1CC(O)COc1ccc(Cl)cc1Cl (stereo not drawn) | inactive: -19.9%
42 | O=C(CCS(=O)(=O)c1cccs1)Nc1ccc(C(=O)Nc2cccc(Cl)c2)cc1 | inactive: 0.51%
43 | COc1cc(OC)cc(C(=O)N2CCC(c3ccncc3)CC2)c1 | inactive: -1.72%
44 | COc1ccc(N2CC(c3nc(-c4cc(OC)c(OC)c(OC)c4)no3)CC2=O)cc1Cl (stereo not drawn) | inactive: -3.1%
45 | O=C(Cc1ccccc1)Nc1c(C(=O)N2CCN(c3ccc(F)cc3)CC2)oc2ccccc12 | inactive: -17.8%
46 | COc1ccc(CNc2ccc3cc(S(=O)(=O)N4CCCCC4)ccc3n2)cc1 | inactive: -14.6%
47 | Cc1ccc(C)c(NC(=O)CN2C(=O)CSc3nc(C)cc(C)c32)c1 | inactive: -16.2%
48 | O=C(NCCc1ccccc1)c1ccc2c(c1)CCN2S(=O)(=O)c1ccc(Br)cc1 | inactive: -12.6%
